Source: PMC8827906
Like-named read-outs stand apart in the source and are kept apart here. No constants are given. Whether binding was seen depends on the method and setting. In cells and extracts the contact can be indirect. Some entries that bind do so weakly or less than the wild type. For part of these data: Where a sequence is shown, tags or fusion partners need not be part of it.

Protein sequences, listed by entry. Tags and fused reporters are not part of them.
UniProt P07437: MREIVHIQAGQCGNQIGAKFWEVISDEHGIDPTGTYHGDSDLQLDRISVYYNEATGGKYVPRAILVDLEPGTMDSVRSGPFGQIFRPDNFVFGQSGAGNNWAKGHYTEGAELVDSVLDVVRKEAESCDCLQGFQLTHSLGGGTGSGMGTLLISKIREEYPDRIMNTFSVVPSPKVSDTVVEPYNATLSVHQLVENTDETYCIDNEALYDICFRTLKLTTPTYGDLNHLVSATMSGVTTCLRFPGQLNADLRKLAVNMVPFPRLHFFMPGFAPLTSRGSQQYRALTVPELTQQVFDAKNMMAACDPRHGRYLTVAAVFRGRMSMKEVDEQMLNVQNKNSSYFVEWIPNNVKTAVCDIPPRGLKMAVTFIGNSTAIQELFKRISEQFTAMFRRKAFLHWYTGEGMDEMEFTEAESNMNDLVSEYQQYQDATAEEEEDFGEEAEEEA

What was measured:
[1] = biological target: T1, PLK2-KD, kinase-dead mutant (K111R) (human) (UniProt Q9NYY3); assay: proximity ligation; Duolink in situ Red PLA in fixed, permeabilised HEK293T cells co-transfected with pCDNA3.1 constructs; mouse anti-PLK1 and rabbit anti-PLK2 primary antibodies; with or without nocodazole (40 ng/mL, 16 hours)
T1 sequence: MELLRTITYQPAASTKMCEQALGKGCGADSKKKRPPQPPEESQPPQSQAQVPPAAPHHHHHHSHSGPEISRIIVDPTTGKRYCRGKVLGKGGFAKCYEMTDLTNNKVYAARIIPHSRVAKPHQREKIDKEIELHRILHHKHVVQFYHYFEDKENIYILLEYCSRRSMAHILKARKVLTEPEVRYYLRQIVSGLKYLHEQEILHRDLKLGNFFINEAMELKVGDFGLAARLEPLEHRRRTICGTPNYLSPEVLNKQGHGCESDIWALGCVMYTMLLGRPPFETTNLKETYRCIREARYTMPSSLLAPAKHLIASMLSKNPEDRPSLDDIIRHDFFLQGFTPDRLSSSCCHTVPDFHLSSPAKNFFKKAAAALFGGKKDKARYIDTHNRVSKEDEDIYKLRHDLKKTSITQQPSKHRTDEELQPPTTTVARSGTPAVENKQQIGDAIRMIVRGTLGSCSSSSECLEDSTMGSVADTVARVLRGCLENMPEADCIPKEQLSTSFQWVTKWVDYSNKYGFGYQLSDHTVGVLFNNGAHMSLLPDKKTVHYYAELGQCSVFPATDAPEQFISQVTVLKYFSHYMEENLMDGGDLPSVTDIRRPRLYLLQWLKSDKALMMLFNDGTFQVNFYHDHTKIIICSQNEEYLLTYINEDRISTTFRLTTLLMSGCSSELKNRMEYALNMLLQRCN

[2] = biological target: T2, PLK2-PBD, polo-box domain mutant (W503F, H629A, K631M) (human) (UniProt Q9NYY3); assay: as above
T2 sequence: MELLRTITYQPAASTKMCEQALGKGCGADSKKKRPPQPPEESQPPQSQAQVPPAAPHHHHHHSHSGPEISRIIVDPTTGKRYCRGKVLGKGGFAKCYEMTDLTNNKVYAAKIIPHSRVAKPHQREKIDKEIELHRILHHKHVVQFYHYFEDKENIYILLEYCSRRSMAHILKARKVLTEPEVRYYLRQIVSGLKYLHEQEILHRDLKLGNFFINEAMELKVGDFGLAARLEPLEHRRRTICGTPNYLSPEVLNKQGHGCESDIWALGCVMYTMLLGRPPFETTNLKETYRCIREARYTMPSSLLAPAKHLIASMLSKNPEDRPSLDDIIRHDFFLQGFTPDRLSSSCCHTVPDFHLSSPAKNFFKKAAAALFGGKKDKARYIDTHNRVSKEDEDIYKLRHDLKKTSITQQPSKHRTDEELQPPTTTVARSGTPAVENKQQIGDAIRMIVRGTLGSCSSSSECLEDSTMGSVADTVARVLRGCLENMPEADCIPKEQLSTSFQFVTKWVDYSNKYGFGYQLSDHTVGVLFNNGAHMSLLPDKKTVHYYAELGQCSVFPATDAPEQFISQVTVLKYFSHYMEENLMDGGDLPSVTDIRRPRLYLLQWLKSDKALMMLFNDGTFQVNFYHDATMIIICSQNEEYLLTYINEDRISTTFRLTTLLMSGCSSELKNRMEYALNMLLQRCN

[3] = biological target: Full-length wild-type PLK2 expressed from pCDNA3.1 (human) (UniProt Q9NYY3); assay: as above
[4] = biological target: Polo-like kinase 2 (PLK2), wild type, BiFC bait fused to the N-terminal YFP fragment (human) (UniProt Q9NYY3); assay: split reporter; BiFC in HEK293T cells: stable PLK2-bait (YFP N-fragment) cell line infected with prey (YFP C-fragment) retrovirus; YFP-positive cells counted by flow cytometry 48 hours after infection; repeated five times in triplicate
[5] = biological target: Polo-like kinase 2 (PLK2), wild type, BiFC bait fused to the N-terminal YFP fragment (human) (UniProt Q9NYY3); assay: as above; remark: listed apart in the source

## Full-length PLK1 expressed from pCDNA3.1 (from UniProt P53350 1-603)
[1]
  binding: binds
[2]
  binding: binds
[3]
  binding: binds

## Polo-like kinase 1 (PLK1), BiFC prey fused to the C-terminal YFP fragment (from UniProt P53350 1-603)
[4]
  binding: binds

## β-tubulin (TUBB), BiFC prey fused to the C-terminal YFP fragment (from UniProt P07437 1-444)
[4]
  binding: binds

B1: RB transcriptional corepressor 1 (RB1), BiFC prey fused to the C-terminal YFP fragment (protein, UniProt P06400 1-928)
chain: MPPKTPRKTAATAAAAAAEPPAPPPPPPPEEDPEQDSGPEDLPLVRLEFEETEEPDFTALCQKLKIPDHVRERAWLTWEKVSSVDGVLGGYIQKKKELWGICIFIAAVDLDEMSFTFTELQKNIEISVHKFFNLLKEIDTSTKVDNAMSRLLKKYDVLFALFSKLERTCELIYLTQPSSSISTEINSALVLKVSWITFLLAKGEVLQMEDDLVISFQLMLCVLDYFIKLSPPMLLKEPYKTAVIPINGSPRTPRRGQNRSARIAKQLENDTRIIEVLCKEHECNIDEVKNVYFKNFIPFMNSLGLVTSNGLPEVENLSKRYEEIYLKNKDLDARLFLDHDKTLQTDSIDSFETQRTPRKSNLDEEVNVIPPHTPVRTVMNTIQQLMMILNSASDQPSENLISYFNNCTVNPKESILKRVKDIGYIFKEKFAKAVGQGCVEIGSQRYKLGVRLYYRVMESMLKSEEERLSIQNFSKLLNDNIFHMSLLACALEVVMATYSRSTSQNLDSGTDLSFPWILNVLNLKAFDFYKVIESFIKAEGNLTREMIKHLERCEHRIMESLAWLSDSPLFDLIKQSKDREGPTDHLESACPLNLPLQNNHTAADMYLSPVRSPKKKGSTTRVNSTANAETQATSAFQTQKPLKSTSLSLFYKKVYRLAYLRLNTLCERLLSEHPELEHIIWTLFQHTLQNEYELMRDRHLDQIMMCSMYGICKVKNIDLKFKIIVTAYKDLPHAVQETFKRVLIKEEEYDSIIVFYNSVFMQRLKTNILQYASTRPPTLSPIPHIPRSPYKFPSSPLRIPGGNIYISPLKSPYKISEGLPTPTKMTPRSRILVSIGESFGTSEKFQKINQMVCNSDRVLKRSAEGSNPPKPLKKLRFDIEGSDEADGSKHLPGESKFQQKLAEMTSTRTRMQKQKMNDSMDTSNKEEK
[5]
  binding: no binding
